# Test results reported in PubChem BioAssay (NCI).
# Where a structure was tested more than once in an assay, its records may differ in their call.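 Negative percent growth values reflect cell death: -40 means 40% of the cells present at the start died, and -100 means all died.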 Not every entry of the source has a single result; some have several. The list is limited to them. How the source made its calls: active means growth percent below 10; inactive means the rest. There may be further records. This drug was run again and again over the years, at its own concentration, as given; each value is one run. Marks such as (2×) stand for listed records that agree.
# Legend:
# SN12C renal = test: NCI-60 one-dose screen, 48 h (100 = growth as untreated, 0 = no growth, -100 = all killed); conditions: 2.5 mM
# UO-31 renal = test: as above; conditions: 2.5 mM
structure (smiles),measurement,setting,value
O=c1[nH]cc(F)c(=O)[nH]1,growth,SN12C renal; runs of 1992,"inactive: 32.2 (4×), 20.8, 32.3, 31.8 (3×), 33.9 (2×), 30.5 (3×), 22.2, 23.7 (2×), 25.9, 80.4, 17.1, 32.6 (2×), 36.7, 31.5, 31.6, 45.7, 63.6, 49, 36.9, 25.4, 48.9, 16.4 (2×), 32.9 (2×), 38.1, 17.2, 22.7, 27.6, 31.4 (3×), 34.6, 22.9, 27.2, 28.7, 43.7, 30.6 (2×), 28.2 (2×), 30.2 (3×), 31.9, 24.9, 32.5, 26.3, 21.2, 34.7, 39.4, 22.5, 11.9, 22.3, 23.3, 31.1, 28.4, 26.8, 28.5 (3×), 25, 32.8, 37.1, 15, 12.1, 34.3, 25.5, 61.9, 35.2, 23.1 (2×), 28.6, 24.8, 36.6, 12.5, 12.4, 21.5, 35.4, 28.1, 24.2, 10.4, 24.1, 37.9, 30.3, 31.3, 34.4, 39.3, 31.7, 48.3, 39.9, 33, 35.5, 43.8, 24.3, 38.7, 32.4, 67.5, 23.6, 40.5, 40.3% and active: 7.67, 0.225, 9.69, 6.82, 6.58%"
same,growth,SN12C renal; runs of 1993,"inactive: 33, 28.1, 29.1, 20.5, 37.2, 32.7 (2×), 35.7 (2×), 35.9, 32.3, 20.6, 26.1, 31.1, 36.8, 27.6, 38.2, 44, 30.4, 36.2, 25.8, 33.6, 32.4, 35.8, 41.4, 17.3, 33.8, 52.7, 29.8, 34.7, 12.5, 33.4, 40, 25.7, 43, 40.7, 49.4, 84.9, 38, 35.6, 39.5, 32, 26.3, 51.5, 26.9, 34.4, 35.5, 37.3%"
same,growth,SN12C renal; runs of 1994,"inactive: 31.5 (2×), 26.8 (2×), 13.2, 25.6, 31.1, 34.1, 19.8, 20.9, 30.9, 22, 15.1, 17.6, 34.6, 21, 34.5, 29.6, 26.7, 32.7, 26, 22.7, 33, 50.3, 22.8, 40.6, 34, 32.5, 31.9, 21.4, 53.6%"
same,growth,SN12C renal; runs of 1995,"inactive: 36.2, 32.4, 23.8, 12.4, 10.1, 32.8, 35.5, 14.1, 38.6, 27.7, 39.4 (3×), 23.6, 23.5, 33.3, 24.5, 17.7, 27.5 (2×), 31.2, 33.8, 19.1, 29, 39.8, 41.1, 27.4, 25.4, 36.6, 30.4, 20.6, 38.2, 30.5, 33.9, 38.5, 19, 30.8, 39.3, 34.1% and active: -22.2%"
same,growth,SN12C renal; runs of 1996,"inactive: 40.5, 38.8, 27.9, 32.4, 52, 21.3, 27.1, 20.5, 36.9, 25.5, 20.3, 47.8, 43.8, 29.8, 34.9, 20.7, 27.5 (2×), 45.4, 26.6, 28.8 (2×), 52.2, 46.9, 49.1, 24.9, 35.6, 47.7, 39.5, 24.5, 28.3, 33.1, 38.9, 30, 22.8, 34.8, 31.3, 41.5, 43.3, 29.6, 29.7, 26.2, 43.4, 32.5, 30.1, 19.2, 39.3, 24, 32.8, 58.2, 23.8, 35.1, 36.1, 31.9, 40% and active: -2.86%, -97.6%"
same,growth,SN12C renal; runs of 1997,"inactive: 33.4, 39.2, 30.9, 40.1, 47.4, 24.9, 11.6, 30.2, 22.1, 52.8, 27.7, 22.5, 59, 24.6, 29.7, 45, 20.1, 46.8, 33.7, 29.6, 22, 32.4, 62, 37.9 (2×), 23.9, 27.3, 53, 31.8, 40.7, 20.9, 23.5, 11.5, 37.7, 47.5, 27.1, 32.6, 34.7, 12.2% and active: -7.01%"
same,growth,SN12C renal; runs of 1998,"inactive: 30.9, 47.4, 36.5, 53, 40.6, 15.7, 19.6, 35.7, 30.3, 23.7, 32, 24.1, 35.8, 58.8, 21.4% and active: -27.3, -2.68, -3.71, -23.4%"
same,growth,SN12C renal; runs of 1999,"active: -68, -0.891, 3.6, -39.5, 1.88, 0.39, 0.562, 0.906, 0.627, -22, 3.14, -48.4, 2.25% and inactive: 25.6%, 31.5%, 21.9%"
same,growth,SN12C renal; runs of 2000,"active: -47.4, 2, 1.59, 1.3%"
same,growth,UO-31 renal; runs of 1991,"active: -74.4, -72.2, -76.7, -75.8, -73.7, -70.5, -83.4, -38.1, -68, -50.1, -48.8, -65.2, -48.3, -55.1, -60, -76.6, -49.5, -43.8, -55.6, -36.1%"
same,growth,UO-31 renal; runs of 1992,"active: -82.1, -55.8, -72.1, -21.3, -11.7, -31.9, -48.5, -60.6, -64.4 (3×), -63 (2×), -58.7, -75.3, -69.3, -52.5, -77.1, -71.5, -45.2 (2×), -68.7 (2×), -54.1, -83.2, -58.4, -59.8 (2×), -61.2, -72.4, -68, -48.9, -50, -45, -79.5, -74.1 (2×), -70, -45.7 (2×), -66.5, -45.4, -52.7 (2×), -54.7, -34.1, -64.2 (2×), -51.6, -65.2, -47.4, -47.9, -71.4, -53.5, -65.3, -61.9, -68.2, 5.94, -63.1, -43.9, -47.7, -46.6, -45.3, -58, -49, -57.2, 4.55, -60.5, -70.8, -48.6, -55.5, -47.8, -53.6, -25.1, -58.6, -7.03, 2.65, 1.32, -2.83, -55.9, -47.3, -60.7 (2×), -65.1, -68.6, -81.6, -72.3 (2×), -55.3, -87.2, -61, 8.55, -66.6, -73.7, 9.33, -61.4, -22.8, -74.8, -59.5, -57.8, -50.3, -55.1, -69.4, -84.7, -64, -10.4% and inactive: 42.8, 14.8, 13.9, 15.8, 15.7, 22.4, 15.2%"
same,growth,UO-31 renal; runs of 1993,"active: -29.4, -52.7, -49.2 (3×), -73, -34.3 (2×), -46.2, -20.6, -39.2, -56.6, -51.2, -66.2, -82.7, -81, -37.1, 2.31, -74.8, -71.4, -66.7, -63, -81.4, -70.2, -47.6, -42.6, -52.1, -83.6, -70.7, -90.4, -50.4, -30.9, 2.28, -82.1, -60.6, -75.3, -26.5, -36.8, -71, -40.5, -3.84, -53.3, -64.9, -22.8, -42.8% and inactive: 102%, 126%"
same,growth,UO-31 renal; runs of 1994,"active: -19.8, -33.7, 3.49, -11.1, -29.9, -64.8, -41.8, -69.7, -50.3, -22.7, 2.63, -27.2, -15.9, -36 (2×), -24.2, -25, -10.7, -29.1, 1.7, -50.9, -28.6, -50, -69.8, -75.3, -59.9, -78.7, -58.1, -22.3, -82.8, -73.7, -56.9, -40.1% and inactive: 12%"
same,growth,UO-31 renal; runs of 1995,"active: -31.6, -71.2, -63.8 (2×), -50, -57.1, -48.1, -83.4, -31.9, -41.5, -59.1, -48.6, -83.3, -63.5, -49.5, -56, -61.4, -71.1, -51.2, -59.6, -80.9, -69.8, -84.8, -10, -62.7, -79.8, -14.6, -21.1, -29.9, -66.6, -45.3, -65, -67.6, -72.1, -56.2, -37.3, -58.8, -40.5, -70.5, -69.9%"
same,growth,UO-31 renal; runs of 1996,"active: -22.9, -62.1, -63, -45.4, -56.7, -50.5 (2×), -44.2, -61.6, -81.7, -50, -14.4, -63.9, -73.4, -77.4, -22.8, -44.3, -72.5, -45.2 (2×), -18.1, -32.5 (2×), -53.7, -72, -63.6, -13.8, 4.41, -23.3, -9.48, -38.4, -28.5, -65, -73, -20.7, -54.9, 0.26, -32.8, -42.5, -57.7, -76.7, -31.3, 8.14, -40.4, 0.0686, -27.7, -71.6, -62.3, 9.28, -24.9, -41.8, -45.7, -66.1, -63.5, -36.6, -37.4, -54.8%"
